Measured values reported in the supplement of paper PMC4967469.
pIC50: −log10 of the molar value. IC50 is the fitted dose that halves viability relative to control wells, and lower means more sensitive; where the fit passes the top or lowest dose, that dose stands as a limit. AUC is the area under the same curve over the 256-fold range up to the top dose, as a fraction; values near 1 show little effect. Where the top dose is marked as inferred, it is not printed in the source and was worked back from the curve model.

What was measured:
Experiment in all cases: Viability of human cancer cell lines after 72 h of drug (GDSC screen)
CCT007093 = compound: O=C1/C(=C/c2cccs2)CC/C1=C\c1cccs1 [CCT007093]; details: top dose 6.6 µM; top dose inferred
Experimental: (§1)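 Human cancer cell lines in 384-well plates, medium with 10% serum, drug for 72 h over a 256-fold dose range (nine 2-fold or five 4-fold steps up to the top dose). Adherent lines were fixed and stained with the nucleic acid dye Syto60, suspension lines read with resazurin; signal relative to control wells, capped at 0 and 100%. One two-parameter sigmoid per drug and line, fitted in a mixed model over all curves with the slope shared within a line.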

QL-XII-47 = compound: C=CC(=O)N1CCc2ccc(-n3c(=O)ccc4cnc5ccc(-c6cnn(C)c6)cc5c43)cc21 [QL-XII-47]; details: top dose 10.24 µM; top dose inferred
Experimental: as §1

KIN001-266 = compound: CCN1CCC(n2cc(CNc3cc(Cl)c4ncc(C#N)c(Nc5ccc(F)c(Cl)c5)c4c3)nn2)CC1 [KIN001-266]; details: top dose 20 µM; top dose inferred
Experimental: as §1

| Cell Line | AUC (CCT007093) | pIC50 (CCT007093) | AUC (QL-XII-47) | pIC50 (QL-XII-47) | AUC (KIN001-266) | pIC50 (KIN001-266) |
| --- | --- | --- | --- | --- | --- | --- |
| SKM-1 (haematopoietic neoplasm, suspension) | 0.887 | < 5.18 |  |  |  |  |
| SK-MEL-5 (melanoma, adherent) | 0.981 | < 5.18 | 0.853 | < 4.99 | 0.956 | < 4.70 |
| COR-L303 (small cell lung carcinoma, suspension) |  |  | 0.602 | 5.92 | 0.872 | 4.74 |
| DOV13 (ovary, adherent) | 0.977 | < 5.18 | 0.971 | < 4.99 | 0.851 | 4.72 |
| SW1116 (large intestine, adherent) | 0.985 | < 5.18 | 0.983 | < 4.99 | 0.967 | < 4.70 |
| QGP-1 (pancreas, adherent) | 0.979 | < 5.18 | 0.854 | < 4.99 | 0.899 | < 4.70 |
| K-562 (chronic myeloid leukaemia, suspension) | 0.985 | < 5.18 | 0.642 | 5.81 | 0.849 | 4.84 |
| D-566MG (glioma, adherent) | 0.964 | < 5.18 | 0.728 | 5.55 | 0.866 | 4.76 |
| JHOS-4 (ovary, adherent) | 0.976 | < 5.18 |  |  |  |  |
| BT-549 (breast, adherent) | 0.977 | < 5.18 |  |  |  |  |
| VMRC-LCD (lung adenocarcinoma, adherent) | 0.993 | < 5.18 |  |  |  |  |
| NCI-H2066 (small cell lung carcinoma, adherent) | 0.965 | < 5.18 |  |  |  |  |
| KMRC-20 (kidney, adherent) | 0.989 | < 5.18 | 0.901 | < 4.99 | 0.92 | < 4.70 |
| NUGC-4 (stomach, adherent) | 0.988 | < 5.18 | 0.964 | < 4.99 | 0.562 | 5.73 |
| SNU-1040 (large intestine, adherent) |  |  | 0.569 | 5.98 | 0.785 | 4.92 |
| SK-GT-4 (oesophagus, adherent) | 0.982 | < 5.18 | 0.502 | 6.19 | 0.869 | < 4.70 |
| SNU-61 (large intestine, adherent) | 0.978 | < 5.18 | 0.526 | 6.11 | 0.923 | < 4.70 |
| MKN7 (stomach, adherent) | 0.933 | < 5.18 |  |  |  |  |
| KYAE-1 (oesophagus, suspension) | 0.983 | < 5.18 | 0.421 | 6.42 | 0.817 | 4.90 |
| ZR-75-30 (breast, adherent) | 0.973 | < 5.18 |  |  |  |  |
| BALL-1 (B-cell leukaemia, suspension) | 0.997 | < 5.18 |  |  |  |  |
| ESO26 (oesophagus, adherent) | 0.986 | < 5.18 | 0.511 | 6.16 | 0.702 | 5.35 |
| COR-L311 (small cell lung carcinoma, suspension) |  |  | 0.304 | 6.76 | 0.873 | < 4.70 |
| KARPAS-1106P (B-cell lymphoma, suspension) | 0.993 | < 5.18 |  |  |  |  |

| Cell Line | AUC (CCT007093) | pIC50 (CCT007093) | AUC (QL-XII-47) | pIC50 (QL-XII-47) | AUC (KIN001-266) | pIC50 (KIN001-266) |
| --- | --- | --- | --- | --- | --- | --- |
| NCI-H1650 (lung adenocarcinoma, adherent) | 0.96 | < 5.18 |  |  |  |  |
| RH-18 (rhabdomyosarcoma, adherent) | 0.975 | < 5.18 | 0.829 | 5.11 |  |  |
| CL-34 (large intestine, adherent) | 0.987 | < 5.18 |  |  |  |  |
| NCI-H146 (small cell lung carcinoma, suspension) | 0.994 | < 5.18 |  |  |  |  |
| MOLM-16 (acute myeloid leukaemia, suspension) | 0.945 | < 5.18 |  |  |  |  |
| NCI-H835 (lung carcinoid, suspension) | 0.99 | < 5.18 |  |  |  |  |
| JEKO-1 (B-cell lymphoma, suspension) | 0.962 | < 5.18 |  |  |  |  |
| RL95-2 (endometrium, adherent) |  |  | 0.961 | < 4.99 | 0.868 | 4.74 |
| CRO-AP2 (B-cell lymphoma, suspension) | 0.989 | < 5.18 |  |  |  |  |
| PWR-1E (prostate, adherent) | 0.987 | < 5.18 |  |  |  |  |
| SUP-B8 (B-cell leukaemia, suspension) | 0.989 | < 5.18 |  |  |  |  |
| NCI-H508 (large intestine, semi-adherent) | 0.938 | < 5.18 |  |  |  |  |
| NCI-H1341 (small cell lung carcinoma, suspension) | 0.991 | < 5.18 |  |  |  |  |
| NB17 (neuroblastoma, adherent) |  |  | 0.984 | < 4.99 | 0.795 | 4.96 |
| DIFI (large intestine, adherent) | 0.988 | < 5.18 |  |  |  |  |
| KASUMI-1 (acute myeloid leukaemia, suspension) | 0.944 | < 5.18 | 0.455 | 6.32 |  |  |
| MHH-CALL-2 (B-cell leukaemia, suspension) | 0.991 | < 5.18 |  |  |  |  |
| MM1S (myeloma, suspension) | 0.982 | < 5.18 |  |  |  |  |
| SK-MEL-31 (melanoma, adherent) | 0.985 | < 5.18 |  |  |  |  |
| EW-22 (Ewing sarcoma, adherent) | 0.932 | < 5.18 |  |  |  |  |
| NCC010 (kidney, adherent) | 0.945 | < 5.18 |  |  |  |  |
| EMC-BAC-1 (lung adenocarcinoma, adherent) |  |  | 0.655 | 5.74 | 0.792 | 4.98 |
| IGROV-1 (ovary, adherent) | 0.97 | < 5.18 |  |  |  |  |
| KATOIII (stomach, semi-adherent) | 0.99 | < 5.18 |  |  |  |  |
